# Data taken from the supplement of paper PMC12889115.
# The list shows a part of the results. Rule as the data show it: active = 25% or less and inactive = the rest. Single values are uncertain, as repeats are few or missing.
# Test system: Salmonella enterica serovar Typhimurium SL1344
# Test: intramacrophage bacterial GFP load (SAFIRE), percent of DMSO control (% of DMSO); higher = more intracellular bacteria (less inhibition)
# Conditions: 25 µM; system: infected RAW 264.7 macrophages
# Method: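 Secondary screen of the 553 primary hits at 25 µM. (i) S. Typhimurium SL1344 grown in Mueller-Hinton broth with 0.5 µg/mL polymyxin B, OD600 read after 18 h. (ii) SAFIRE assay: RAW 264.7 macrophages infected with S. Typhimurium sifB::gfp (MOI 30); compound added 2 h post-infection; cells fixed at 18 h; GFP-positive pixel fraction per macrophage imaged by confocal microscopy and expressed as % of DMSO control.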
# 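Also: compounds tested were the hits of an earlier 50 µM broth growth screen of a drug-like diversity library run with polymyxin B.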
row,SMILES,intramacrophage bacterial GFP load
1,COCCCN1C(=O)CC(CC(=O)N2CCC(c3ccc(F)cc3)C2)(c2ccccc2Cl)C1=O (stereo not given),inactive: 81.2
2,CN(CCc1cnn(C)c1)c1nncc(-c2ccc3ccccc3c2)n1,inactive: 98.4
3,COc1ccc2c(c1)SC(c1ccc(F)c(F)c1)CCN2CC1CC1 (stereo not given),inactive: 63.2
4,CCOC(=O)C1(Cc2cccc(Cl)c2)CCCN(C(=O)c2cc(CC)on2)C1 (stereo not given),inactive: 81.6
5,OC(Cc1ccccc1)c1ccc2c(c1)CN(Cc1ccc(OC(F)F)cc1)CCO2 (stereo not given),inactive: 63.7
6,O=C(Nc1cnn(-c2ccc(C(=O)N3CCN(c4ccccc4Cl)CC3)cc2)c1)C1CCOCC1,inactive: 99.1
7,O=C(c1ccc2c(c1)OCO2)C1CCCN(C(=O)c2csc(-c3cccs3)n2)C1 (stereo not given),inactive: 152
8,Fc1ccc(-c2cnnc(NCc3cccc(OC(F)(F)F)c3)n2)cc1,inactive: 88
9,CCn1cc(CN2CCC(c3ccc(OC)c(C)c3)Sc3cc(OC)ccc32)c(C)n1 (stereo not given),inactive: 115
10,CCC(=O)C1CCCN(C(=O)C2CCCN(c3nc(C)c4ccc(OC)cc4n3)C2)C1 (stereo not given),inactive: 28.1
11,CCS(=O)(=O)c1ncc(CN(C)C2CCCCC2)n1CCCc1ccccc1,inactive: 26.2
12,COc1cccc(CNCc2c(C(=O)N3CCCCCCC3)nc3ccc(Cl)cn23)c1,active: 17.6
13,Cc1ccc(C(=O)N(Cc2ccc(OCc3ccc4c(c3)OCO4)cc2)CC2CCCO2)s1 (stereo not given),inactive: 115
14,COc1cccc(OC)c1-c1cnnc(NCc2cccc(C(F)(F)F)c2)n1,inactive: 109
15,O=C(/C=C/c1cccs1)N(Cc1ccncc1)Cc1cccc(OCCc2ccc(F)cc2)c1,inactive: 96
